Laboratory results published in PubChem BioAssay AID488969 (Vanderbilt High Throughput Screening Facility, 2010).
Whole data set: some 110,000 compounds, median “z-score” near -0.1, cut for the highest 2% near 2. The list shows a part of the results. Activity calls are given as the source filed them.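 Rule for the calls: active = z-score in the third read window above 3 or below -3; inactive = the rest.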

Target: Metabotropic glutamate receptor 8 (Rattus norvegicus) (UniProt P70579)
Experiment: rat mGluR8 modulators via GIRK flux, primary screen, cell-based, thallium flux, HTS (AID 488969)
Details: HEK293 rat mGluR8, GIRK (G protein-gated inwardly rectifying potassium channel) thallium flux, FluoZin2; at 10 µM; stronger effect = higher value; submaximal glutamate (EC20) added with thallium

Sequence of UniProt P70579 (P70579 whole entry, looked up): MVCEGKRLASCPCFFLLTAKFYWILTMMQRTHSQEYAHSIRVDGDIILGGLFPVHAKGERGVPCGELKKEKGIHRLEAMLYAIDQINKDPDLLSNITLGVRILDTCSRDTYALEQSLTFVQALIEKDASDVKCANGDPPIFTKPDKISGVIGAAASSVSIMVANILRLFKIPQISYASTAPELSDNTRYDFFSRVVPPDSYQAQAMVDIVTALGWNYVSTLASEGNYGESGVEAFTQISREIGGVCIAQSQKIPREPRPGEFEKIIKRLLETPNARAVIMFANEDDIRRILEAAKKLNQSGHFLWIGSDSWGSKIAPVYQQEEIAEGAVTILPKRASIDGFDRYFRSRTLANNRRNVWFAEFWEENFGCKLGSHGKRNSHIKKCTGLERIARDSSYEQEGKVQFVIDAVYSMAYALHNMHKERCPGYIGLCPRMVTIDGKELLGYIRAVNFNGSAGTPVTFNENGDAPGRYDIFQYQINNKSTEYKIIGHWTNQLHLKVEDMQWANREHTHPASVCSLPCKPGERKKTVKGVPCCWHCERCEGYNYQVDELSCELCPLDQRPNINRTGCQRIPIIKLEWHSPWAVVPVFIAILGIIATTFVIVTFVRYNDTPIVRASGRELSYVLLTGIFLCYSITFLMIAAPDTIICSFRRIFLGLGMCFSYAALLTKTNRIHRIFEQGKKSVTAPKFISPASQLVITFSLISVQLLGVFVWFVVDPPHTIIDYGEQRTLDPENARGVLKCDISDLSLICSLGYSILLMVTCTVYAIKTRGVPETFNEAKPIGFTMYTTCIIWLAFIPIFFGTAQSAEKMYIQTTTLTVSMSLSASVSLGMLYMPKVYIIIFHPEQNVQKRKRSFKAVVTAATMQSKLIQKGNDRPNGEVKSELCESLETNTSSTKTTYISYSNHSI

In order of rising z-score:
1. CCOC(=O)c1ccc(-n2c(=S)sc3c(=O)[nH]c(C)nc32)cc1  -2.45
2. Cc1nc(NC(=O)c2ccco2)sc1-c1csc(Nc2ccc(Cl)cc2Cl)n1  -1.59
3. COc1cc2c(cc1NC(=O)c1cc(-c3ccncc3)nc3ccc(C)cc13)oc1ccccc12  -1.46
4. COc1ccc(OC)c(NC(=O)C2CCCN2C(=O)C2CCC(C)CC2)c1 (stereo not drawn)  -0.952
5. Cc1nn(-c2cc(N3CCCCC3)ccc2[N+](=O)[O-])c(=O)c2ccccc12  -0.905
6. O=c1[nH]n2c(=O)c3c([nH]c2c1N=Nc1ccccc1)CCC3  -0.872
7. c1ccc(-c2nc(NCc3ccco3)c3ccccc3n2)nc1  -0.859
8. CCCCCOC(=O)C1=C(C)NC(=O)NC1c1ccccc1OCC (stereo not drawn)  -0.85
9. COCCNS(=O)(=O)c1ccc(OCC(=O)OC)c(Cl)c1  -0.665
10. O=C(c1ccco1)N1CCN(C(=O)c2cc3c(s2)-c2ccccc2OC3)CC1  -0.636
11. COc1cccc(Nc2nc(-c3ccc(O)cc3)cs2)c1  -0.635
12. COC(=O)CSc1c(-c2ccccc2)c2cc(Cl)ccc2[nH]c1=O  -0.594
13. C=CCn1c(SCc2nc3ccccc3c(=O)[nH]2)nnc1-c1cc2cc(Cl)ccc2o1  -0.542
14. C/C(=N\NC(=O)c1cccc(N/N=C(\C)c2ccccc2)c1)c1ccccc1  -0.529
15. Cc1ccc(-n2c(C)cc(/C=C(\C#N)C(=O)NCC3CCCO3)c2C)cc1 (stereo not drawn)  -0.45
16. COc1ccc(C)cc1NC(=O)CN(c1ccccc1F)S(C)(=O)=O  -0.431
17. CCC(Sc1ncccc1C(=O)OCCN1CCCC1=O)C(=O)NCc1ccco1 (stereo not drawn)  -0.404
18. O=[N+]([O-])c1ccc(N2CCN(S(=O)(=O)Cc3ccccc3)CC2)cc1N1CCOCC1  -0.395
19. Cc1ccc(-c2nnc(NC3CCCCC3)c3ccccc23)cc1S(=O)(=O)N1CCN(C)CC1  -0.39
20. O=C(N/C(=C/c1ccc(Br)cc1)C(=O)N1CCCC1)c1ccccc1F  -0.382
21. Cc1cc2nc(C)n(CCCNC(=O)Nc3ccccc3)c2cc1C  -0.376
22. CCOc1ccc(S(=O)(=O)NCc2ccc(F)cc2)c2cccnc12  -0.347
23. Cn1c(C(N)=O)cnc1Sc1ncc(C(F)(F)F)cc1Cl  -0.347
24. BrC(=C\c1ccccc1)/C=N/Nc1nc(N2CCOCC2)nc(N2CCOCC2)n1  -0.316
25. c1ccc(SCCc2ccncc2)cc1  -0.316
26. N=C1C(c2nc3ccccc3[nH]2)=C(O)CN1c1ccccc1  -0.307
27. CC(C)(C)N(NC(=O)OCc1ccccc1)C(=O)c1ccccc1Cl  -0.285
28. COCCN(CCOC)S(=O)(=O)c1ccc(C(=O)Nc2nc(-c3ccccc3)c(C(=O)c3ccccc3)s2)cc1  -0.275
29. O=C1NC(c2ccncc2)Nc2sc3c(c21)CCCC3 (stereo not drawn)  -0.239
30. O=c1[nH]c(SCc2cc(=O)n3ccccc3n2)nc2c1CCC2  -0.229
31. CCOc1cc(/C=N\NC(=O)c2ccc(NC(=O)C(C)(C)C)cc2)ccc1OC(=O)c1ccc(C)cc1  -0.218
32. Cc1c(NC(=O)C(C)NCC2CCCO2)c(=O)n(-c2ccccc2)n1C (stereo not drawn)  -0.189
33. Cc1ccc(S(=O)(=O)N(C)C)cc1NC(=O)COC(=O)c1c(C)noc1C  -0.16
34. CCc1ccccc1NC(=O)CC(O)(C(=O)OC)C(F)(F)F (stereo not drawn)  -0.152
35. CC(=O)c1c(O)c(C)c(-c2ccccc2)n(-c2ccccc2)c1=O  -0.148
36. Cc1ccc(C)c(-n2c(-c3ccc4c(c3)OCO4)n[nH]c2=S)c1  -0.146
37. CCOc1ccc2nc(NCCCNS(=O)(=O)c3ccc(C)cc3)c(C#N)cc2c1  -0.128
38. O=S(=O)(NC1CC1)c1ccc(S(=O)(=O)N(Cc2ccccn2)C2CCCC2)cc1  -0.114
39. CCC(C)[C@H](NC(=O)OC(C)(C)C)C(=O)N/N=C/c1ccc2cc(OC)ccc2n1 (stereo partly drawn)  -0.0973
40. CCc1ccc(N2C(=O)CC(N3CCC(C(=O)OC)CC3)C2=O)cc1 (stereo not drawn)  -0.0761
41. Cc1ccc2nc(NC(=O)CSc3nnc(C)c(=O)n3N)sc2c1  -0.051
42. O=C(N/N=C1\CCCc2ccccc21)c1ccccc1[N+](=O)[O-]  -0.0482
43. N=C1C(=O)OCC1c1ccccc1NC(=O)c1ccc(F)cc1 (stereo not drawn)  -0.0442
44. CCNC(=S)NNC(=O)c1ccccc1OC(F)F  -0.0422
45. COCCNC(=O)COc1ccc(Oc2ccccc2)cc1  -0.042
46. CCC1=Nc2ccc(Br)cc2C(c2ccccc2)N1CC(=O)OC (stereo not drawn)  -0.0378
47. COc1ccc(OC)c(N(CC(N)=O)S(=O)(=O)c2ccc(OC)c(OC)c2)c1  -0.0368
48. O=C(NCc1ccc2c(c1)OCO2)C1CCC(CNS(=O)(=O)c2ccccc2)CC1 (stereo not drawn)  -0.0357
49. Cc1cc(C)n(C(C[N+](=O)[O-])c2ccc(Cl)cc2)n1 (stereo not drawn)  -0.0311
50. Cc1ccccc1C(=O)N/C(=C/c1ccc(-c2cccnc2Cl)o1)C(=O)NCCCN1CCN(C)CC1  -0.021
51. CCSc1nc2c(sc3ccccc32)c(=O)n1C(C)C  0.00726
52. CCN1CCN(c2nc(N)c([N+](=O)[O-])c(Nc3cccc(C)c3)n2)CC1  0.0136
53. Cc1cccc(-c2nnc(-c3ccc(N)cc3)o2)c1  0.111
54. CCN(c1ccccc1)S(=O)(=O)c1cc(OC)ccc1OC  0.192
55. CC(C)NC(=O)CN1C(=O)NC(CCc2ccccc2)C1=O (stereo not drawn)  0.261
56. COC(=O)Nc1ccc(S(=O)(=O)N2CCN(c3ccc(F)cc3)CC2)cc1  0.413
57. NC(=O)CSc1nc(O)cc(=O)n1-c1ccccc1  0.418
58. Cc1cc(C)nc(N2CCCC(C(=O)Nc3ccc4c(c3)OCO4)C2)n1 (stereo not drawn)  0.461
59. Cn1cccc1Cc1nnc(SCC(=O)NCc2ccc3c(c2)OCO3)n1CCc1ccccc1  0.499
60. COc1ccccc1NC(=O)CSc1nnc(CC(=O)Nc2cccc(C(F)(F)F)c2)n1C  0.541
61. CCCCc1nc2sc3c(c2c(=O)[nH]1)CCC3  0.62
62. O=C(COC(=O)c1cnccn1)Nc1ccc2c(c1)OCO2  0.668
63. O=C1CCC(=O)N1CNc1ccccn1  1.05
64. COc1cc(OC)cc(C(=O)NC(=S)NNC(=O)Cc2cccs2)c1  2.21
65. CCCc1cc(C(N)=S)ccn1  2.24

For `Cc1ccc(OC(=S)Nc2ccccc2)c(C)c1`, the z-score was active: 3.2.
With `CCCN(CCC)C(=O)CSc1nc2ccccc2c(=O)n1C1CCCC1` the z-score was active: -4.46.
In the case of `COCCn1c(=S)[nH]c2cc(C(=O)N3CCN(c4ccc(F)cc4)CC3)ccc2c1=O`, the z-score is reported as active: 4.3.
